In PubChem BioAssay AID1362 (SRMLSC, 2008) one finds inhibition data, which are given here for 110 compounds.

The list shows a part of the results. Further columns of the screen follow, without active or inactive calls. The list favours compounds with an active or inconclusive main result.

The nature of the experiment: growth inhibition of WT strain, primary screen, mitochondrial fusion inhibitor project, WT and mutant strains, chemical genetic (AID 1362). Note: tested in S. cerevisiae. The note with it: mitochondrial fusion phenotypic screen, at 10 µM.
For the compound `COc1ccc(C(C)=O)cc1CSc1nnc(Nc2ccc(C)cc2C)s1`, the inhibition was determined as 13.2%.

In the case of `CN(CC(=O)Nc1ccccc1Sc1ccccc1)C1CCCCC1`, the inhibition was 20.7%.

Regarding `O=C(CSCc1cnn(-c2ccccc2)c1-n1cccc1)N1CCN(Cc2ccccc2)CC1`, the inhibition is 40.7%.

In the case of `Cc1ccc(C(C(=O)NCc2ccccc2)N(Cc2cccs2)C(=O)c2ccc3c(c2)OCCO3)cc1` (stereo not given), the inhibition turned out to be 22.4%.

With `CC1(C)C2CCC1(C)C(OC(=O)CC(=O)O)C2` (stereo not given), the inhibition is -12.3%.

Regarding `CCCCN(CCCC)CCNC(=O)Cc1nc2c(c(=O)[nH]c(=O)n2C)n1C`, the inhibition amounted to 7.11%.

As to `O=C(N=Nc1c(O)n(Cc2ccccc2)c2ccccc12)c1cc2ccccc2cc1O`, the inhibition amounted to 19.7%.

Turning to `CCOC(=O)N1C(=O)C2(CCCCC2)N(c2ccccc2Cl)C1=S`, the inhibition is 52.4%.

Turning to `Cc1ccc(-c2cc(-c3ccccc3C)[nH]n2)c(O)c1`, the inhibition stood at 53.1%.

With `Cc1ccc(/C=N/n2cnc3sc(-c4ccccc4)cc3c2=O)o1`, the inhibition is 19.9%.

Take `c1ccc(CCNc2ncnc3scc(C4COc5ccccc5O4)c23)cc1` (stereo not given): the inhibition came out at 35.7%.

In the case of `CCCCc1ccc(-c2nc(NC(=O)C3C4CCC(O4)C3C(=O)O)sc2C)cc1` (stereo not given), the inhibition worked out at 83%.

As for `COc1ccc(-c2nc(-c3ccccc3)[nH]c(=O)c2C#N)cc1`, the inhibition is 26.5%.

With `CC1CN(c2nc3ccccc3nc2C(C#N)C(=O)OC2CCCCC2)CC(C)O1` (stereo not given), the inhibition amounted to 28.4%.

In the case of `CC1CCCCN1c1nnc(NC(=O)c2cc(-c3ccc(Br)cc3)on2)s1` (stereo not given), the inhibition is 41.4%.

As to `COc1ccc(-c2nc3c(n2O)CCCC3=O)cc1OC`, the inhibition came out at 11.4%.

Regarding `COc1ccc(C(C(=O)Nc2ccc(F)cc2)N(C(=O)Cn2nnc3ccccc32)C2CC2)cc1` (stereo not given), the inhibition came to 7.97%.

Turning to `O=C(NC(=S)Nc1nc2c(s1)CSc1ccccc1-2)c1ccccc1`, the inhibition was 71.2%.

`FC(F)Sc1ccc(NC(=S)NC(c2ccccc2)c2ccccc2)cc1`: the inhibition came to 42.4%.

With `Cc1nn(-c2nc3ccccc3[nH]2)c(N)c1-c1ccccc1`, the inhibition came out at 66.8%.

For `CCOC(=O)c1cnc(-n2nc(C)cc2C)nc1NCCc1ccccc1`, the inhibition worked out at 64.3%.

Turning to `O=C1c2ccccc2C(=O)N1CC#CCN1CCN(C(c2ccccc2)c2ccccc2)CC1`, the inhibition worked out at 33.9%.

Consider `COc1ccccc1CNC(=O)c1ccc(-c2ccccc2C(F)(F)F)o1`, for which the inhibition was -11.3%.

With `COc1ccc(NC(=O)CNc2cccc(C#N)c2)cc1Cl`, the inhibition amounted to 20.7%.

Turning to `CC1=[N+](C)c2c(ccc3cccnc23)C1(C)C`, the inhibition worked out at 63%.

For `Cc1cc2c(cc1C)CSC(c1c(O)ccc3ccccc13)SC2`, the inhibition was 93.2%.

As to `O=C(CSc1nnnn1-c1ccccc1)NCc1cccs1`, the inhibition is -13.5%.

As to `CC(C)Nc1nc(NC(C)C)nc(SCCOC(=O)Nc2ccc(Cl)cc2Cl)n1`, the inhibition was determined as 55.2%.

Turning to `O=C(NCCCn1ccnc1)C(Cc1ccccc1)N1C(=O)c2ccccc2C1=O` (stereo not given), the inhibition stood at 39.1%.

Turning to `CCOc1cccc(-c2nnc3sc(C4CCCCC4)nn23)c1`, the inhibition amounted to 66%.

`Cc1cc(N2CCN(C(=O)c3ccco3)CC2)n2ncc(-c3ccccc3)c2n1`: the inhibition worked out at 87.8%.

For the compound `CC(=O)Nc1ccc(S(=O)(=O)N2CCSC2c2ccc(Cl)cc2)cc1` (stereo not given), the inhibition came to 18.2%.

Turning to `O=C(COC(=O)C12CC3CC(CC(O)(C3)C1)C2)Nc1ccccc1OC(F)F`, the inhibition worked out at 16.9%.

Consider `O=C(c1cccc(Br)c1)c1conc1C(=O)c1ccco1`, for which the inhibition came to 23.4%.

On to `O=C(NCc1ccc(Cl)cc1)c1ccccc1Oc1ccccc1`, for which the inhibition was 21.6%.

As for `COc1ccccc1NC(=O)CN1CCN(CC(=O)Nc2ccc(OCc3ccccc3)cc2)CC1`, the inhibition came to 58.4%.

As for `CC(=O)/C(C#N)=C1\NC(=O)C(Cc2ccccc2Cl)S1` (stereo not given), the inhibition worked out at 10.9%.

For the compound `Cc1ccc2c(CSc3nnc(C4CC4)n3N)cc(=O)oc2c1C`, the inhibition stood at 4.77%.

`COc1cccc(-n2nc(C#N)c(Cl)cc2=O)c1`: the inhibition was 76.2%.

`Cc1cccc(/C=N/Nc2ccc3ccccc3n2)c1`: the inhibition came out at 45.4%.

For the compound `Cc1nc(C)c(-c2csc(Nc3ccc(F)cc3)n2)s1`, the inhibition is 72.3%.

With `COc1ccc(/C=N/NC(=S)SC)cc1OC`, the inhibition was determined as 19%.

Consider `O=C(c1cc(Br)c(Br)s1)N1CCN(C/C=C/c2ccccc2)CC1`, for which the inhibition is 39.4%.

On to `CC1CC(C)CN(C(=O)c2cc3cc(Br)cc(Br)c3o2)C1` (stereo not given), for which the inhibition worked out at 19.3%.

For `Cc1[nH]n(-c2ccc([N+](=O)[O-])cc2)c(=O)c1C=NCCN1CCN(C(=O)C(C)C)CC1`, the inhibition was found to be 53.4%.

With `CC(C)Cn1c(O)c(/C=C2\C=NN=C2c2ccccc2)sc1=S`, the inhibition is 21.8%.

With `CCc1ccc(OCC(=O)N2c3ccccc3CCc3ccccc32)cc1`, the inhibition was determined as 74.4%.

Consider `CC(C)C(=O)Nc1ccc(C(=O)NNC(=O)CCCOc2ccc(Cl)cc2Cl)cc1`, for which the inhibition is -3.93%.

`CCCCCCCCOC(=O)c1nc(Cl)c(Cl)c(N)c1Cl`: the inhibition amounted to 22.9%.

On to `COc1ccc(S(=O)(=O)Nc2ccccc2C(=O)Nc2nc(-c3ccc(F)cc3)cs2)cc1OC`, for which the inhibition was determined as 12.1%.

Consider `Cc1ccc(-n2cc(C(=O)c3ccc(F)cc3)nn2)cc1Cl`, for which the inhibition was -3.45%.

In the case of `O=C(Oc1cccnc1)c1ccc(Cl)c(Cl)c1`, the inhibition is -11.7%.

`COC(=O)CN1C(c2cccc(Cl)c2)=Nc2ccc(Cl)cc2C1c1ccccc1` (stereo not given): the inhibition came out at 20.8%.

Take `CCOc1ccccc1C(=O)Nc1cc(OC)ccc1OC`: the inhibition was found to be 49.8%.

In the case of `CC(CO)Nc1nc(SCc2ccccc2)nc2sc3c(c12)CCC3` (stereo not given), the inhibition was 61.6%.

On to `CCn1c2ccccc2c2nnc(SCc3ccccc3)nc21`, for which the inhibition worked out at 39.8%.

Take `COc1ccc(Nc2ncnc3scc(-c4ccc(OC)cc4)c23)cc1`: the inhibition amounted to 42.9%.

`Clc1ccc(OCCOCCN2CCc3ccccc3C2)c(Cl)c1`: the inhibition amounted to 69.7%.

Regarding `CCC1CSC(Nc2ccc(C(=O)/C=C/c3ccc(OC)c(OC)c3)cc2)=N1` (stereo not given), the inhibition was 30.1%.

With `S=C(NCc1ccco1)N1CCN(c2ccccc2Cl)CC1`, the inhibition was 71%.

In the case of `Cc1ccc(N=Nc2c(C)[nH]n(C(N)=S)c2=O)cc1C`, the inhibition turned out to be 52.7%.

As for `COC(=O)c1ccn(C(=O)c2ccc(Cl)cc2)n1`, the inhibition was determined as 17.6%.

In the case of `COc1ccccc1NC(=O)c1cccc(NC(=O)c2ccco2)c1`, the inhibition was -17%.

With `O=C(NC1CCCCC1)N1CCSC1=Nc1ccccc1`, the inhibition came out at 33.8%.

`CCNc1nc(NCC)nc(SCCOc2ccc(C)cc2)n1`: the inhibition was found to be 82.4%.

With `CN1N=C(c2ccc(F)c(F)c2)CSC1=NCc1ccccc1`, the inhibition was found to be 48.5%.

For `COc1ccccc1CNC(=O)c1ccccc1OCc1ccc(F)cc1`, the inhibition worked out at 12%.

With `O=C(C1CCCCC1)N(Cc1nc2sc3c(c2c(=O)[nH]1)CCCC3)Cc1cccs1`, the inhibition is 26.7%.

Regarding `C=CCSc1nc2c(c(C3CC=CCC3)c1C#N)CCC2` (stereo not given), the inhibition is -8.51%.

For `CCCc1nc2c(=O)n(C)c(=O)nc-2n(C)n1`, the inhibition worked out at 59.4%.

On to `O=C(Nc1ccc(Br)c(C(F)(F)F)c1)c1ccccc1`, for which the inhibition amounted to 44%.

As for `COc1cccc(-c2cc3nc4c(c(N5CCC6(CC5)OCCO6)n3n2)CCC4)c1`, the inhibition stood at 46.8%.

As for `COc1ccc2c(c1)CCc1c-2n[nH]c1C(=O)O`, the inhibition is -9.55%.

As to `CCOc1ccc(Oc2c(/C=N/NC(=O)COc3ccccc3OC)c(C)nn2-c2ccccc2)cc1`, the inhibition stood at 6.66%.

Turning to `O=C(Nc1ccc(S(=O)(=O)N2CCN(Cc3ccccc3)CC2)cc1)c1cnccn1`, the inhibition amounted to 16.4%.

For the compound `C/C(=N\Nc1cc(-c2ccccc2)nc(-c2ccccc2)n1)c1ccc(O)c(C)c1`, the inhibition came to 34.3%.

Turning to `CCCCc1ccc(/C=C2\C(=O)c3ccccc3C(O)=C2C(=O)OCC)cc1`, the inhibition is 47.6%.

Regarding `Cc1nc(N2CCCCC2C)c2c(C)c(C(=O)Nc3cccc(C(F)(F)F)c3)sc2n1` (stereo not given), the inhibition was -3.49%.

As for `CC(=O)Nc1ccc(S(=O)(=O)NCCC(=O)OCCN2C(=O)c3ccccc3C2=O)cc1`, the inhibition was 31.1%.

Regarding `Cc1ccc(Nc2nc(N)c([N+](=O)[O-])c(N3CCCC(C)C3)n2)cc1C` (stereo not given), the inhibition came out at 93.2%.

`CC1=NNC(=O)/C1=C\c1cn(-c2ccccc2)nc1-c1ccc(F)cc1`: the inhibition turned out to be 79.3%.

For the compound `CN(C)c1ccc(C(=O)c2ccc(N(C)C)c3ccccc23)cc1`, the inhibition was found to be 21.4%.

As for `CCCCCn1c(CN2CCN(c3cc(Cl)ccc3C)CC2)nc2c1c(=O)[nH]c(=O)n2C`, the inhibition was 35.8%.

In the case of `Cc1c(Cl)cccc1NC(=S)NCCc1ccc(C(F)(F)F)cc1`, the inhibition stood at 76%.

As for `OC1CCCN(c2c3c(nc4cc(-c5cccc(F)c5)nn24)CCCC3)C1` (stereo not given), the inhibition came to 29.8%.

For `COc1cc(/C=C2\SC(=S)N(Nc3ncc(C(F)(F)F)cc3Cl)C2=O)ccc1O`, the inhibition stood at 62.9%.

On to `CCCC[C@@H]1CNC(=S)N1CCC12CC3CC(CC(C3)C1)C2`, for which the inhibition was determined as 63%.

For `Oc1ccccc1/C=N/Nc1ccccc1`, the inhibition came out at 62.1%.

In the case of `Cc1cc(C)n(CCc2nc(-c3ccc(C(C)(C)C)cc3)cs2)n1`, the inhibition stood at 24.8%.

Regarding `Cc1ccc(C(C)C)c(OCCNC(=S)Nc2cccc3ccccc23)c1`, the inhibition is 21.4%.

Regarding `Cc1ccc(-c2cc(-c3n[nH]c(=S)n3C)c3ccccc3n2)cc1`, the inhibition was determined as 28.6%.

As to `CC(C)NC(=S)N/N=C/C1=CCC2CC1C2(C)C` (stereo not given), the inhibition is 48.2%.

Take `CCOC(=O)N(C)OC(=O)Nc1ccc(Cl)c(Cl)c1`: the inhibition was determined as 25.4%.

Regarding `COc1ccccc1NC(=S)NCCSc1ccc(C)cc1`, the inhibition was found to be 65.8%.

`CC(C)(C)[C@H]1C=C(C(=O)N2CCN(Cc3ccccc3)CC2)O[C@@H](OCc2ccc(CO)cc2)C1`: the inhibition is 13.2%.

For `O=C(CCC1N=C2c3ccccc3N=C(SCc3cccc(Cl)c3)N2C1=O)NCc1ccco1` (stereo not given), the inhibition stood at 1.64%.

Regarding `COc1cc2nc(C3CCC3)nc(N3CCN(c4ccccc4OC)CC3)c2cc1OC`, the inhibition came to 78.9%.

As for `COC(=O)CSc1nc2cc3c(cc2cc1C)OCO3`, the inhibition was determined as 68.1%.

Regarding `S=c1[nH]c(-c2ccccc2)cn1/N=C/c1cccc2ccccc12`, the inhibition turned out to be 56.7%.

Take `Cc1nc(NC(=O)c2ccco2)sc1-c1csc(Nc2ccc(Cl)cc2Cl)n1`: the inhibition worked out at 35%.

In the case of `O=C(CNC(=S)N(Cc1ccccc1)Cc1ccccc1F)NCCc1ccc(Cl)cc1`, the inhibition is 0.53%.

As for `CC(C)N(C(=S)NC1CCCCC1)c1ccccc1`, the inhibition is 6.5%.

In the case of `Clc1ccc(Nc2ncnc3ccc(Br)cc23)cc1`, the inhibition worked out at 43.1%.

Turning to `COc1ccc(CSCCNC(=S)Nc2ccccc2)cc1Cl`, the inhibition came out at 45.6%.

Regarding `Cc1cc(C)c(S(=O)(=O)N2CCC(C(=O)NCc3ccc(Cl)cc3Cl)CC2)c(C)c1`, the inhibition is 73%.

As for `Cc1cc(C)cc(OCCCOc2cccc3cccnc23)c1`, the inhibition was determined as 66%.

Consider `Clc1cc(Cl)cc(C2=NCCC(c3ccccc3)O2)c1` (stereo not given), for which the inhibition came out at 28.3%.

Turning to `O=C(Nc1ccccn1)c1csc2c1CCCC2`, the inhibition worked out at 58%.

Consider `O=C(CSc1nnc2n1CCCN2C(=S)Nc1ccc(Cl)cc1)c1ccccc1`, for which the inhibition stood at 38.1%.

Turning to `Cc1ccc(Sc2ccc(NC(=O)CCl)cc2)cc1C`, the inhibition was 21.6%.
